# “And” between values parts separate entries of the source, which are not always exact repeats. Equal entries are not always repeated. Out of some 390,000 compounds screened, about 4,000 (1%) were called active. This list was built around the results that the source calls inconclusive (neither active nor inactive); the mix of calls is not that of the screen. The call rests on the fitted dose curve; in most records, active means well fitted inhibition curve with a large enough effect; inconclusive means small, poorly fitted or top-dose-only effect; inactive means no such curve, though single readings can be large or run the other way. A potency beside an inconclusive call is a rough fit, not a confirmed value.
# Target: Thioredoxin reductase 1, cytoplasmic (Rattus norvegicus) (UniProt O89049)
# Sequence of UniProt O89049 (O89049 whole entry, looked up): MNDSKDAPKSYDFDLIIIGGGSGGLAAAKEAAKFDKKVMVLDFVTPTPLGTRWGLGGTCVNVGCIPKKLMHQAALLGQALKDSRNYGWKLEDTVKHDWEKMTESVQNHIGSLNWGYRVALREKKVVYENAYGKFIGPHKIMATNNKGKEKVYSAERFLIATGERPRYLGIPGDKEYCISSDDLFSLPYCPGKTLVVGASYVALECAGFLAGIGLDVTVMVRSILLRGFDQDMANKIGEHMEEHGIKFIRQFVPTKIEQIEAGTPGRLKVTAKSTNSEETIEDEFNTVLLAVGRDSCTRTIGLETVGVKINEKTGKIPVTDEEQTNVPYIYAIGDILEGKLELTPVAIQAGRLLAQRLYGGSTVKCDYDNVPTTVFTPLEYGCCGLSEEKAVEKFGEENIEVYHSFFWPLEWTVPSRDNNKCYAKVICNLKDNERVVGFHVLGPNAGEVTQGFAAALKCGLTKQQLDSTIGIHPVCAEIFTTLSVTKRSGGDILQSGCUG
# Experiment: qHTS Assay for Inhibitors of Mammalian Selenoprotein Thioredoxin Reductase 1 (TrxR1): qHTS; further: nearly all actives have a fitted effect of over 65% in size
# Settings: recombinant rTrxR1, NADPH fluorescence consumption, selenite substrate; series mostly up to 114 µM; activity change, negative = inhibition: at the top concentration
# Outline: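 Rat TrxR1 (90 nM in the dispensed reagent) was pre-reduced with 400 uM NADPH for 5 min at room temperature, then incubated with compound for 15 min. After 400 uM selenite was added, NADPH fluorescence (Ex 340/Em 450 nm) was followed for 8 min.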
# On the % scale 0 is the no-effect control and ±100 the full control effect; potency means the concentration at half of the fitted maximal effect; tags describe the fitted curve by direction and shape.
Compound,"activity change, negative = inhibition",Potency
O=c1/c(=C\c2ccc3c(c2)OCO3)sc2n1CCCN=2,inactive: 3.7%,
CCOC(=O)c1ccc(-n2c(CCC(=O)O)ccc2-c2cccs2)cc1,,"inconclusive: 28.2 µM [inhibitor, single point]"
COc1ccc(S(=O)(=O)N2CCCC(C(=O)NC3CCCCC3)C2)cc1 (stereo not drawn),,"inconclusive: 89.1 µM [inhibitor, single point]"
O=C1N(Cc2cccc(Cl)c2)C[C@@H]2C[C@@H](c3cccn3-c3nccs3)N3CCC[C@@]123,,"inconclusive: 50.1 µM [inhibitor, partial curve]"
COc1cc2c(cc1OC)C(COc1ccc3c(C)cc(=O)oc3c1)N(C(=O)c1ccc(C)c(C)c1)CC2 (stereo not drawn),inactive: 19.4%,
Cc1ccn2c(CNCc3cnn(C)c3)c(C(=O)N3CCCCCC3)nc2c1,,"inconclusive: 89.1 µM [inhibitor, single point]"
O=C(O)CCC(=O)Nc1ccc(OCC(=O)O)cc1,inactive: -8.44% [at 0.457 µM],
COc1ccc(OCC#CCN2CC(C)OC(C)C2)cc1 (stereo not drawn),,active: 15.8 µM
CC1(C)SC2c3ccccc3C(=O)N2[C@@H]1C(=O)NCCCN1CCOCC1 (stereo partly drawn),,"inconclusive: 89.1 µM [inhibitor, single point]"
COc1cc2c(C(=O)N3CCN(c4ccc(C)cc4)C(C)C3)cn(CC(C)C)c(=O)c2cc1OC (stereo not drawn),inactive: -4.68%,
COc1ccc(C(=O)/C=C/C(=O)N(CC(=O)NC2CCCCC2)Cc2ccccc2OC)c(O)c1,,"inconclusive: 2.82 µM [inhibitor, full curve, poor fit]"
COC(=O)/C=c1/s/c(=C(/C#N)C(=O)N2CCOCC2)n(-c2ccccc2)c1=O,,"inconclusive: 39.8 µM [inhibitor, single point]"
CCCCNC(=O)C1C2C=CC(C2)C1C(=O)O (stereo not drawn),,"inconclusive: 79.4 µM [inhibitor, single point]"
COc1ccc(N2CCN(C(=O)Cc3noc4ccc(C)cc34)CC2)cc1,inactive: 9.65% [at 11.4 µM],
COc1ccc(C(=O)N2CCC(c3ccncc3)CC2)cc1OC,inactive: -4.2% [at 57.1 µM],
Cc1oc2c(O)c(O)ccc2c(=O)c1-c1ccccc1,inactive: -0.801%,
Cc1cccc(C)c1N1C(=O)CC(N(O)c2ccccc2)C1=O (stereo not drawn),,"inconclusive: 50.1 µM [inhibitor, partial curve]"
O=C(c1ccco1)N1CCCC(Nc2ccc3c(c2)OCCO3)C1 (stereo not drawn),inactive: 3.59%,
O=C(CCc1ccccc1)NNC(=O)Nc1cccc(Cl)c1,inactive: 18.2%,
CCN(CC)S(=O)(=O)c1cc(NC(=O)Cn2ncc(Cl)c(Cl)c2=O)ccc1C,,"inconclusive: 79.4 µM [inhibitor, partial curve]"
O=C(NCc1ccc2c(c1)OCO2)c1ccc2c(=O)n(C3CCCC3)c(=O)[nH]c2c1,inactive: 19.3%,
Oc1ccc2ccccc2c1C=Nc1ccc(N2CCOCC2)cc1,inactive: -1.82% [at 57.1 µM],
O=C(CN(c1ccccc1)S(=O)(=O)c1ccccc1)NCCSc1ccccn1,inactive: 18% [at 57.1 µM],
Cc1ccc(CCc2nnc(SCC(=O)Nc3cc(Cl)ccc3Cl)n2-c2ccccc2)o1,,"inconclusive: 44.7 µM [inhibitor, partial curve]"
CCOc1ccc2nc(SC3CC(=O)N(c4ccccc4)C3=O)sc2c1 (stereo not drawn),,"inconclusive: 79.4 µM [inhibitor, single point]"

Compound,"activity change, negative = inhibition",Potency
Cc1nc(Cl)nc(N(C)c2ccccc2)c1[N+](=O)[O-],,"inconclusive: 39.8 µM [inhibitor, partial curve]"
COc1ccccc1CNCC(=O)Nc1ccc(N2CCOCC2)cc1,,"inconclusive: 50.1 µM [inhibitor, partial curve, poor fit]"
Cc1ccc(CNC(=O)c2cc3c(=O)n(C)c4ccccc4c3n2C)o1,,"inconclusive: 31.6 µM [inhibitor, partial curve, poor fit]"
CCNC(=S)Nc1cc2oc3ccccc3c2cc1OC,inactive: -4.5%,
Brc1ccc(C2C=Cc3ccccc32)cc1 (stereo not drawn),,"inconclusive: 56.2 µM [inhibitor, single point]"
Cc1cc(NC(=O)CSc2ccc(-c3ccc(F)cc3)nn2)no1,inactive: -3.3%,
CCc1ccccc1NC(=O)CCn1nc(C)c2c(C)n(-c3ccccc3)nc2c1=O,inactive: 16.5%,
Cc1cc2nc(-c3ccc(SCC(=O)N4CCOCC4)nc3)[nH]c2cc1C,inactive: 9.72%,
Cc1ccc2sc(NC(=O)CSc3nc(C)cc(C)c3C#N)nc2c1,inactive: 79.8%,
O=C(Nc1nc(-c2cccs2)cs1)c1ccc([N+](=O)[O-])o1,inactive: -18.2%,
Cc1ccc([N+](=O)[O-])cc1S(=O)(=O)N1CCNCC1,,"inconclusive: 28.2 µM [inhibitor, single point]"
CN(C)CC1CCC/C(=C\c2ccc(OC(=O)/C=C/c3ccc(Cl)c(Cl)c3)cc2)C1=O (stereo not drawn),,"inconclusive: 11.2 µM [inhibitor, full curve]"
COC(=O)C1=NN(C(=O)c2ccc(Cl)cc2)C(O)(c2ccccc2)C1 (stereo not drawn),inactive: -9.52%,
Cc1ccc(CNc2cc(-c3nn4c(C)nnc4s3)ccc2C)s1,inactive: 17.9% [at 57.1 µM],
CCCCCCC/C=C\CCCCCCCCC(=O)O,,"inconclusive: 37.7 µM [inhibitor, single point] and inconclusive: 21.2 µM [inhibitor, partial curve, poor fit]"
Cc1nc(C2COc3ccccc3O2)sc1C(=O)O (stereo not drawn),inactive: 3.34% [at 2.29 µM],
O=[N+]([O-])c1cc(S(=O)(=O)N2CCCCCC2)ccc1F,,active: 31.6 µM
COc1ccccc1/C=C/C(=O)c1ccc(NC(C)=O)cc1,,"inconclusive: 25.1 µM [inhibitor, partial curve, poor fit]"
Cc1oc(S(=O)(=O)N2CCCCC2)cc1NC(=O)Nc1ccc(F)cc1,,"inconclusive: 15.8 µM [inhibitor, partial curve]"
O=C(CCCCCn1c(=O)c2sccc2n(CC(=O)Nc2cccc(Cl)c2)c1=O)NCc1ccc2c(c1)OCO2,,"inconclusive: 50.1 µM [inhibitor, partial curve, poor fit]"
Cc1nc2c(c(=O)c3ccccc3n2C)c(=O)n1-c1ccc(F)cc1,inactive: 17.2%,
COc1ccc(NC(=O)CCS(=O)(=O)c2nc(-c3cccs3)cc(C(F)(F)F)n2)cc1OC,,active: 25.1 µM
CCCCCNc1c(C(=O)OCC)c(=O)[nH]c2ccccc12,inactive: 9.32%,
COC(=O)c1[nH]c2cc(C)ccc2c1NC(=O)CN1CCN(C(=O)c2ccco2)CC1,,"inconclusive: 14.1 µM [inhibitor, full curve, poor fit]"
CCN(CC)S(=O)(=O)c1ccc2c(c1)nc(SCc1nc3ccsc3c(=O)[nH]1)n2CC,inactive: 2.02% [at 57.1 µM],

Compound,"activity change, negative = inhibition",Potency
CCCCCCSC1=C(C#N)C(=O)NC2(CCCCC2)S1,,"inconclusive: 14.1 µM [inhibitor, partial curve, poor fit]"
CC(C(=O)O)n1c(-c2ccn[nH]2)n[nH]c1=S (stereo not drawn),,"inconclusive: 70.8 µM [inhibitor, single point]"
O=C(NCc1ccco1)c1cc2ccccc2c(=O)o1,,"inconclusive: 39.8 µM [inhibitor, partial curve, poor fit]"
O=C(CC(Cl)(Cl)Cl)N1CCN(/[N+]([O-])=N/Oc2ccc([N+](=O)[O-])cc2[N+](=O)[O-])CC1,,"inconclusive: 3.55 µM [inhibitor, full curve]"
Cn1ncc(Cl)c1C(=O)Nc1cccc(Cl)c1,,"inconclusive: 50.1 µM [inhibitor, partial curve]"
CCc1ccc([C@@H]2CC=C(C(=O)O)[C@H](c3ccc(C(C)(C)C)cc3)N2S(=O)(=O)c2ccc(C)cc2)cc1,inactive: 1.69%,
NC(=S)NNC(=O)c1cc(C(F)(F)F)cc(C(F)(F)F)c1,,"inconclusive: 7.08 µM [inhibitor, single point]"
Cc1cccc(NC(=S)NNc2ncc(C(F)(F)F)cc2Cl)c1,inactive: -14.3%,
Cn1cnnc1SCc1nnc(-c2ccccc2Br)o1,,"inconclusive: 22.4 µM [inhibitor, single point]"
O=c1oc2ccccc2nc1/C=C(O)/C=C/c1ccc(F)cc1,,"inconclusive: 39.8 µM [inhibitor, partial curve]"
Cc1cc2c(=O)n(CC(=O)NCC(=O)N3CCN(Cc4ccccc4)CC3)cnc2s1,,"inconclusive: 25.1 µM [inhibitor, single point]"
CCCn1c(SCC(=O)NCC2CCCO2)nc2c1c(=O)n(C)c(=O)n2C (stereo not drawn),inactive: 9.22%,
Cc1cc(C(=O)N/N=C/C=C/c2ccccc2)c(C)o1,,"inconclusive: 50.1 µM [inhibitor, partial curve, poor fit]"
O=C(c1ccc(S(=O)(=O)c2cccc(Cl)c2)c([N+](=O)[O-])c1)N1CCN(Cc2ccccc2)CC1,inactive: -41.4%,
Cc1ccc(S(=O)(=O)N2CCCCC2C(=O)NCc2ccco2)cc1 (stereo not drawn),,"inconclusive: 56.2 µM [inhibitor, partial curve, poor fit]"
Clc1cccc(-n2cc(-c3ccccc3)c3c(N4CCCCC4)ncnc32)c1,inactive: -11.1% [at 57.1 µM],
NC(=O)Cc1nc(-c2ccc(F)cc2)cs1,inactive: 30.6%,
CCOC(=O)C1CCCN(S(=O)(=O)c2cc3c4c(c2)CC(=O)N4CCC3)C1 (stereo not drawn),inactive: 11% [at 57.1 µM],
CCCNS(=O)(=O)c1cccn1-c1ncc(C(F)(F)F)cc1Cl,inactive: 19.4%,
CC[N+]1(C)CCC(O)(c2ccc(OC)cc2)C(C(=O)c2ccc(OC)cc2)C1 (stereo not drawn),,active: 0.708 µM
Cn1c(O)c(/C=C2\C=NN=C2c2ccccc2)sc1=S,inactive: 32.7%,
CCC(C)(C)NC(=O)C(C(C)C)N(CC1CCCO1)C(=O)CNS(=O)(=O)c1ccccc1 (stereo not drawn),,"inconclusive: 39.8 µM [inhibitor, single point]"
C#CCN1C(=O)S/C(=C\c2ccc(-c3ccc(C(=O)O)cc3C)o2)C1=O,,"inconclusive: 89.1 µM [inhibitor, single point]"
